Sequences with one replicate were seen in a single cluster, so their values are uncertain.
System: ATP
Assay: switch fluorescence ratio, 500 uM ATP over buffer (Cy3 cluster intensity, sum of 5 cycles each) (fold (ratio)); higher = stronger signal-on switching upon ATP binding; sequences stand for … in TCGTCGGCAGCGTCAGATGTGTATAAGAGACAGTTTTTTTTTTTTTTTTTTTTTTTTT…TC
Conditions: aptamer strand: ATP DNA aptamer (quencher-CACCTGGGGGAGTATTGCGGAGGAAGG + anchor), 100 nM annealed; ATP concentration: 500 uM; one replicate
Summary of the method: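 Clusters with intensities outside 100-1000 RFU were excluded. The remaining Cy3-labelled switching-strand clusters on a modified Illumina MiSeq flow-cell had been annealed to 100 nM quencher-labelled ATP aptamer and imaged in selection buffer, then after 15 min with 500 uM ATP at 22 °C, for five cycles separated by NaOH stripping and re-annealing. The fluorescence ratio, averaged per switch-domain sequence, is each cluster's summed target-cycle Cy3 intensity over its summed buffer-cycle Cy3 intensity.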
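Further: ATP exposure 15 min at 22 °C before imaging.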

Sequence	switch fluorescence ratio
CGCTTTTCTG	1
CAAGTCCGGC	1.04
GGGAACGTTG	1.01
AAGCCTTGCT	0.977
CCTATATCTA	0.999
CGGAATCAAA	0.979
CAGGGTATGC	0.997
AATGGTGCC	0.985
TAGGCACCTT	1.01
GAAGTGGCA	0.955
TCGTTTAAAC	1.04
GCTGTTATC	1.02
ATAAGCGCGC	1.03
TGCTATGGTC	1.02
TATATGCGTA	1.01
GTGAGTCTTC	0.933
AACCGGCCAT	1.03
GCACTAGACG	1.09
CTGGCTTCGT	1.01
TGGCCCGCAT	2
ATACTTACTC	1.28
CAGAAGATTG	1.03
CGCTGCTAGC	1.15
CAGACTCGTG	1.04
TGGAGTGACC	0.987
CTGTGCGGGG	1.02

Sequence	switch fluorescence ratio
CTGTGGGCAC	1.02
CGACGGACCT	1.44
AGCGAATAAT	1.05
CGTGTAGGTA	1.02
GCGGGCACGT	0.969
TCAAAATTAC	1.3
AAATTATATC	1.01
CCCGGGGTTG	1.04
TCTTAAGAG	0.986
ATTTGGAGGA	0.996
AAAAGTCCTC	1.07
CATCATGAGC	1.06
CATTAGGGTT	1.02
ATGCTCGCTC	0.979
TCTAATCTGA	0.986
GTTTTCTCTG	1.01
CGATCGTAGC	1.18
TCCGTCTCCG	1.31
AGATTCCTCT	1.05
TCAGGCGTCT	1.03
CGACTCTTCT	1
CACGCTGTCC	1.28
TTACTCGAGA	1.02
CGGTAAGAAC	0.955
CTGAGTGAGA	0.979
CAGTCATGTA	0.983

Sequence	switch fluorescence ratio
CCGTACAGTC	1.44
ATTTTTGGT	0.99
AGGCGAGAGA	1.02
TGAGGCTTGG	0.946
TAAATTGCTG	0.987
GGCCTGTTGG	0.964
GTTAGATATC	0.968
AATGGGCGGT	1.01
GCGGGTGGGT	0.965
AGGAAGCACT	1.02
TAGAGTTTCC	0.996
TTTTAACGAG	0.989
AGCACGTATT	1.13
TGCTAGATTG	1.02
AATCTCCCCT	1.57
CTAGATACCT	1.24
AAGTTGTGGA	0.996
CCGGAAAGAT	1.04
GAGGCAGCCA	1
CCGAACCCGG	1.17
AATGCGGTTT	1
TTGCCGGCAC	1.01
CCAAAGGTTG	1.01
GAGAGCGCCA	1.08
TCTAGCTGGT	1.01
AGTACTAAGT	1.02

Sequence	switch fluorescence ratio
CAAGATTAGT	0.993
TAGTGTTTAA	0.993
ATCCAACCCG	1.08
GATTGAGTAC	1.06
CTTCGGGTG	1.05
GCTGTGGTTG	0.997
CCTAGTGTCA	1.01
GAGGGTAGCC	1.11
TGAGCCTCTT	0.983
AGGGGAGTCA	0.95
GTTATGACTA	0.962
CGAGGTGGCA	1.02
CATCAGGATA	1.04
ACCTGTGCCT	1.07
ATGGCCGCTA	1.14
GCAAATAGCC	1.09
AAACGAGAAG	1.05
AGTGACGAAT	1.03
GGTATATAAC	0.962
ATCCACAGCG	1.09
CGATCTGGGC	1
GAATTCAGCG	0.961
CTGTATGTT	0.954
GGTACTAGTT	0.999
AGACTCGTGC	1
CGGCAAGTTT	1.13

Sequence	switch fluorescence ratio
ATATAGCTG	1.16
ATTATGCGCC	0.987
TGAAGGTGAT	1.08
CATTCCCTT	1
TCTTTTTAGC	1.01
TGACAACG	0.957
AATATGTGAA	1
AGCAGGCACA	1.08
TTGTCGGCCC	1.01
TGTTACATCT	1.01
AGCTGGGATA	1.01
GGGAACGCGT	0.883
TAAAGCAGAT	1.04
GGAAGGTCGG	0.949
TGGAAAAAT	1.02
TGGGAGTCTT	1.02
TTGCTACGTT	0.996
TCGCGGGGCC	1
AGTATATCCG	1.02
GAGTCTATTT	0.991
GCTCTTGGG	0.923
TTCGTGGTAC	3.3
TTACTACCCC	1.67
CTAGTACAGG	1
TAATAGTTTC	0.998
CTCTTAGGAG	0.963

Sequence	switch fluorescence ratio
TGCCCTGGTT	1.03
AGATGATTG	1.05
TGGCCCAGAT	0.994
CAATACACCT	1.53
TGGTGTTGTA	0.996
GGCCGATTTG	1.01
GGGCCGGGCT	1.19
ATTTTATCC	1.03
AGCAATCACG	3.09
CCTCAAAATT	1.11
TCTCGGGGAT	1.04
CGTCCGAGAG	1.5
GTTCTGCTGC	1.03
ATGCGTTGTG	0.989
GTTCGGTTTT	0.959
ATAGTTGGGC	1.1
CATGTCAAAC	1.01
TGATCCTCAC	1.08
TTCCCGCGCC	2.31
GAGGTACAAT	1.01
AATGCGTCTT	0.991
TTGTTATCCA	0.989
CCTTCATGAA	1.01
